Measurements published in the RNAGym collection of RNA variant scans (doi:10.1073/pnas.2313332121).
This sample is rich in variants without activity.

B1: TPR 5TU (parent)
chain: GGAUCUUCUCGAUCUAACAAAAAAGACAAAUCUGCCACAAAGCUUGAGAGCAUCUUCGGAUGCAGAGGCGGCAGCCUUCGGUGGCGCGAUAGCGCCAACGUUCUCAACUAUGACACGCAAAACGCGUGCUCCGUUGAAUGGAGUUUAUCAUG

Variants of: B1
Assay: polymerase ribozyme fitness, log enrichment relative to wild type (log ratio); higher = more active; in vitro selection for triplet polymerase activity
Procedure, shortened: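 Each subunit of a heterodimeric triplet polymerase ribozyme was represented by a PCR-built, transcribed mutant library that underwent triplicate single-round in vitro selection with frozen incubation at −7 °C. Extended constructs were recovered by gel excision, streptavidin-bead capture and RT-PCR, and Illumina sequencing of input and output libraries kept genotypes with ≥10 input reads and ≥1 read per output. Fitness is the logarithm of genotype enrichment relative to wild-type enrichment, from inverse-variance-weighted replicate averages, with a logarithm base of 2.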
For C32U G59U U77A, the “polymerase ribozyme fitness (log ratio)” value was no more than -4.2. With C32U G74A C93U the “polymerase ribozyme fitness (log ratio)” value was -0.21. With C32U G80U U102G A113U C125U G126A the “polymerase ribozyme fitness (log ratio)” value was no more than -4.2. With C32U G84U A115U G117U the “polymerase ribozyme fitness (log ratio)” value was no more than -4.2. For C32U G94U C116G, the “polymerase ribozyme fitness (log ratio)” value was -3.95. In the case of C32U U33G C38U C54U U77A A107U, the “polymerase ribozyme fitness (log ratio)” value is reported as -3.74. In the case of C32U U55A G140U U148G, the “polymerase ribozyme fitness (log ratio)” value is reported as no more than -4.2. In the case of C32U U55A U56C G58C G62A A89G G100U U101G, the “polymerase ribozyme fitness (log ratio)” value is reported as no more than -4.2. In the case of C32U U55A U77A G141C G152U, the “polymerase ribozyme fitness (log ratio)” value is reported as no more than -4.2. With C32U U55G the “polymerase ribozyme fitness (log ratio)” value was -1.52. With C32U U56A A91U A113U C118A G143C C149U the “polymerase ribozyme fitness (log ratio)” value was no more than -4.2. In the case of C32U U77C C85A C96U U130C G133U, the “polymerase ribozyme fitness (log ratio)” value is reported as no more than -4.2. With C32U U77G C103G A138U the “polymerase ribozyme fitness (log ratio)” value was no more than -4.2. In the case of C32U U82C, the “polymerase ribozyme fitness (log ratio)” value is reported as -1.74. In the case of U33A, the “polymerase ribozyme fitness (log ratio)” value is reported as -3.29. With U33A A37C C51U G92C U111G the “polymerase ribozyme fitness (log ratio)” value was no more than -4.2. With U33A A41C U53C C57U G65A A66C G67C G80C the “polymerase ribozyme fitness (log ratio)” value was no more than -4.2. With U33A A41G C75G C79A A91G A115U the “polymerase ribozyme fitness (log ratio)” value was no more than -4.2. For U33A A41U A64C C76A C95U G124U A138C, the “polymerase ribozyme fitness (log ratio)” value was no more than -4.2. For U33A A47C C99A, the “polymerase ribozyme fitness (log ratio)” value was no more than -4.2. In the case of U33A A47C G68U G92U U101C C103U A121U C131G U144G, the “polymerase ribozyme fitness (log ratio)” value is reported as no more than -4.2. With U33A A47C U56A A60C G67A C85U the “polymerase ribozyme fitness (log ratio)” value was no more than -4.2. In the case of U33A A47U C76U C85A C95U A115U C131G, the “polymerase ribozyme fitness (log ratio)” value is reported as no more than -4.2. With U33A A49C G50C C76A C85G A138U U151C the “polymerase ribozyme fitness (log ratio)” value was no more than -4.2. For U33A A49G A60G A89C C93U G141C, the “polymerase ribozyme fitness (log ratio)” value was no more than -4.2. For U33A A49U A52C C54A C75G C87G A107C G126A G143C, the “polymerase ribozyme fitness (log ratio)” value was no more than -4.2. In the case of U33A A52C C69U C79U C87A C129G, the “polymerase ribozyme fitness (log ratio)” value is reported as no more than -4.2. In the case of U33A A52G A60U G84A C95G U109G A115U G133U G140C U146G, the “polymerase ribozyme fitness (log ratio)” value is reported as no more than -4.2. With U33A A66U A73U A115C the “polymerase ribozyme fitness (log ratio)” value was no more than -4.2. In the case of U33A A73U C87U C93G C105U C108G, the “polymerase ribozyme fitness (log ratio)” value is reported as no more than -4.2. With U33A A91C the “polymerase ribozyme fitness (log ratio)” value was no more than -4.2. For U33A A115G U139G, the “polymerase ribozyme fitness (log ratio)” value was no more than -4.2. For U33A C35U G58C G88C C103U, the “polymerase ribozyme fitness (log ratio)” value was no more than -4.2. In the case of U33A C35U U55G C57U C85U C87U A142C, the “polymerase ribozyme fitness (log ratio)” value is reported as no more than -4.2. In the case of U33A C38U G117C, the “polymerase ribozyme fitness (log ratio)” value is reported as no more than -4.2. In the case of U33A C43G G50U G84A A89U, the “polymerase ribozyme fitness (log ratio)” value is reported as no more than -4.2. For U33A C43U A60U C93A C96U U151C G152A, the “polymerase ribozyme fitness (log ratio)” value was no more than -4.2. With U33A C54A C85U G88A the “polymerase ribozyme fitness (log ratio)” value was no more than -4.2. For U33A C57U A64G G100U G140A, the “polymerase ribozyme fitness (log ratio)” value was no more than -4.2. In the case of U33A C69G C87G, the “polymerase ribozyme fitness (log ratio)” value is reported as no more than -4.2. For U33A C69U C93A A98C A122G U127A, the “polymerase ribozyme fitness (log ratio)” value was no more than -4.2. For U33A C75A A110U, the “polymerase ribozyme fitness (log ratio)” value was no more than -4.2. For U33A C75U G84A A115G A142U, the “polymerase ribozyme fitness (log ratio)” value was no more than -4.2. For U33A C79A C85U, the “polymerase ribozyme fitness (log ratio)” value was no more than -4.2. In the case of U33A C87U C131G A142G, the “polymerase ribozyme fitness (log ratio)” value is reported as no more than -4.2. With U33A C96U the “polymerase ribozyme fitness (log ratio)” value was no more than -4.2. With U33A G42A U45C G65U C87A C118G the “polymerase ribozyme fitness (log ratio)” value was no more than -4.2. In the case of U33A G42C C51A G59C A73G A120C A121U U130A G141A U146G, the “polymerase ribozyme fitness (log ratio)” value is reported as no more than -4.2. In the case of U33A G46A C93G, the “polymerase ribozyme fitness (log ratio)” value is reported as no more than -4.2. In the case of U33A G46U C75A G140C, the “polymerase ribozyme fitness (log ratio)” value is reported as no more than -4.2. In the case of U33A G48C C57U C85U A115G C129G G141U, the “polymerase ribozyme fitness (log ratio)” value is reported as no more than -4.2. In the case of U33A G50A A64C G83C, the “polymerase ribozyme fitness (log ratio)” value is reported as no more than -4.2. For U33A G50A U53A C85G C96G A97U C114G U139A, the “polymerase ribozyme fitness (log ratio)” value was no more than -4.2. For U33A G50C U56A C76A G81C, the “polymerase ribozyme fitness (log ratio)” value was no more than -4.2. For U33A G68A G94C A122U G124A U139C, the “polymerase ribozyme fitness (log ratio)” value was no more than -4.2. For U33A G68A G94C C105U G141U, the “polymerase ribozyme fitness (log ratio)” value was no more than -4.2. With U33A G83A G133U the “polymerase ribozyme fitness (log ratio)” value was no more than -4.2. For U33A G92C G94A A147G U151G, the “polymerase ribozyme fitness (log ratio)” value was no more than -4.2. For U33A G92U C96U C129A G133A A137U C149G G152A, the “polymerase ribozyme fitness (log ratio)” value was no more than -4.2. For U33A G94C C95U A113C, the “polymerase ribozyme fitness (log ratio)” value was no more than -4.2. For U33A U44G C54A G80A A138U, the “polymerase ribozyme fitness (log ratio)” value was no more than -4.2. With U33A U45A U78G G88A U109A A137C the “polymerase ribozyme fitness (log ratio)” value was no more than -4.2. With U33A U55A U61A U82G C95G U135G U144G the “polymerase ribozyme fitness (log ratio)” value was no more than -4.2. For U33A U56C G58C G84A A91C G100U C103U, the “polymerase ribozyme fitness (log ratio)” value was no more than -4.2. For U33A U77G C79G C96G U104A A142G U145A, the “polymerase ribozyme fitness (log ratio)” value was no more than -4.2. For U33A U78G A91U G94A A142C, the “polymerase ribozyme fitness (log ratio)” value was no more than -4.2. For U33A U82G C95U, the “polymerase ribozyme fitness (log ratio)” value was no more than -4.2. For U33A U145C, the “polymerase ribozyme fitness (log ratio)” value was -4. In the case of U33C A37C C51G U53A G100C A115U C116A, the “polymerase ribozyme fitness (log ratio)” value is reported as no more than -4.2. For U33C A37G C63A C87G U111G U151A, the “polymerase ribozyme fitness (log ratio)” value was no more than -4.2. For U33C A39C G88A C118G C123A, the “polymerase ribozyme fitness (log ratio)” value was no more than -4.2. For U33C A39U G50A U61A G128A C149U, the “polymerase ribozyme fitness (log ratio)” value was no more than -4.2. With U33C A41C the “polymerase ribozyme fitness (log ratio)” value was -3.48. In the case of U33C A41U A49U G62C C95U U127G, the “polymerase ribozyme fitness (log ratio)” value is reported as no more than -4.2. With U33C A49C G86A G88C the “polymerase ribozyme fitness (log ratio)” value was no more than -4.2. For U33C A49G U77G U130A G133U U135A, the “polymerase ribozyme fitness (log ratio)” value was no more than -4.2. For U33C A52G G70A G92A A150G, the “polymerase ribozyme fitness (log ratio)” value was -3.87. In the case of U33C A73G C85A U111C A119G, the “polymerase ribozyme fitness (log ratio)” value is reported as no more than -4.2. With U33C A91U C99U the “polymerase ribozyme fitness (log ratio)” value was no more than -4.2. With U33C A115G the “polymerase ribozyme fitness (log ratio)” value was no more than -4.2. With U33C C35A G84U the “polymerase ribozyme fitness (log ratio)” value was no more than -4.2. With U33C C36U C93U the “polymerase ribozyme fitness (log ratio)” value was no more than -4.2. In the case of U33C C36U G59A U111C G128U, the “polymerase ribozyme fitness (log ratio)” value is reported as no more than -4.2. In the case of U33C C36U U56A G84U U90C A110C G143C, the “polymerase ribozyme fitness (log ratio)” value is reported as no more than -4.2.
